In PubChem BioAssay AID1745853 (National Center for Advancing Translational Sciences (NCATS), 2022):
The other results are listed elsewhere or left out. Shown are side measurements of this screen, not its main read-out; they come without a call.

What was measured:
Assay in all cases: Primary Screen for Target Class Profiling of Small Molecule Inhibitors of Methyltransferases
[1] = target: Glycine N-methyltransferase (Homo sapiens) (UniProt Q14749); conditions: purified enzyme, MTase-Glo SAH luminescence; measured here: GNMT inhibition; at 40 µM; stronger effect = lower value
Method in brief: (§1)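 Each enzyme was reacted with SAM and its substrate, with compounds tested once at 40 uM; SAH formed was read by MTase-Glo luminescence.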

[2] = target: Guanidinoacetate N-methyltransferase (Homo sapiens) (UniProt Q14353); conditions: purified enzyme, MTase-Glo SAH luminescence; measured here: GAMT inhibition; at 40 µM; stronger effect = lower value
Method in brief: as §1

[3] = target: Histamine N-methyltransferase (Homo sapiens) (UniProt P50135); conditions: purified enzyme, MTase-Glo SAH luminescence; measured here: HNMT inhibition; at 40 µM; stronger effect = lower value
Method in brief: as §1

[4] = target: Nicotinamide N-methyltransferase (Homo sapiens) (UniProt P40261); conditions: purified enzyme, MTase-Glo SAH luminescence; measured here: NNMT inhibition; at 40 µM; stronger effect = lower value
Method in brief: as §1

[5] = target: Phenylethanolamine N-methyltransferase (Homo sapiens) (UniProt P11086); conditions: purified enzyme, MTase-Glo SAH luminescence; measured here: PNMT inhibition; at 40 µM; stronger effect = lower value
Method in brief: as §1
On the % scale 0 is the no-effect control and ±100 the full control effect.

Row | Structure (SMILES) | activity change, negative = inhibition [1] | activity change, negative = inhibition [2] | activity change, negative = inhibition [3] | activity change, negative = inhibition [4] | activity change, negative = inhibition [5]
1 | C=C1C(=O)O[C@@H]2[C@H]1CCC(C)=C1CCC(=O)O[C@]12C | -7.29% | -5.53% | 2.5% | -11.2% | -2.63%
2 | CCOc1ccc(-c2cc3n(n2)CC(C)(C(=O)NC2CCCCC2)N(c2ccccc2C)C3=O)cc1 (stereo unspecified) | 2.14% | 3.14% | 2.56% | 8.23% | -0.118%
3 | CCCn1c(=O)c2ccc(C(=O)NC(C)CC)cc2n2c(=O)n(CC(=O)c3ccc(OCC)cc3)nc12 (stereo unspecified) | 9.66% | 4.63% | 11.6% | 5.04% | 6.85%
4 | CC(=O)Nc1c2n(c3ccc(F)cc13)CC(C)(C(=O)NCCC(C)C)N(Cc1ccccc1)C2=O (stereo unspecified) | 3% | 0.844% | 8.51% | 14.4% | 4.42%
5 | CCN1CCC2(CCC1=O)CN(Cc1nnc(-c3cccnc3)o1)CCN2C (stereo unspecified) | -1.17% | -9.23% | -4.94% | -9.57% | 9.46%
6 | O=C(Nc1ccc(Cl)cc1)c1nc(Nc2ccccc2)c2ccccc2n1 | -7.3% | -1.74% | -10.2% | -15.6% | -12.3%
7 | CC12CCC3C1C(c1c(cc(O)c(C(=O)c4ccccc4)c1O)O2)C3(C)C (stereo unspecified) | -45.3% | -25.9% | -61.4% | -37.7% | -32.6%
8 | C[C@@H]1COC(Nc2ccc3ncnc(Nc4ccc(OCc5nccs5)c(Cl)c4)c3c2)=N1 | -13.3% | 6.09% | -47.1% | -15.6% | -13.2%
9 | Cc1ccc(CN2C(=O)COC[C@H]2C(=O)N2CCN(c3cccc(Cl)c3)CC2)cc1 | -9.05% | -0.527% | -5.18% | -2.23% | -1.67%
10 | CC1(C(=O)NC2CCCCCC2)Cc2ccccc2C(=O)N1Cc1cccs1 (stereo unspecified) | -0.937% | 2.83% | 7.75% | 2.23% | 1.51%
11 | O=C(C1CCCC1)N1CCCC(C(=O)N2CCC(c3nc4ccncc4[nH]3)C2)C1 (stereo unspecified) | -7.63% | -11.7% | -4.89% | -15.3% | -7.51%
12 | Cc1ccc(C)c(N2C(=O)c3cc4ccccc4n3CC2(C)C(=O)NCCC(C)C)c1 (stereo unspecified) | 4.89% | 2.32% | 5.04% | 4.03% | 4.37%
13 | CC1CCN(S(=O)(=O)c2ccc3c(ccn3CC(=O)NCCc3ccccc3Cl)c2)CC1 | -1.68% | 0.005% | -7.26% | -7.84% | -6.83%
14 | O=C(Cn1nc2nc(Nc3ccc(F)cc3)ccn2c1=O)Nc1ccccc1F | 2.16% | 2.96% | 8.87% | -4.17% | -1.39%
15 | O=S(=O)(c1ccccc1)N1CCC(F)(c2nc(Cc3ccccc3)no2)CC1 | -9.24% | -11.7% | -3.07% | -12.5% | -10.8%
16 | CC1(C(=O)NC2CCCCCC2)Cn2c(cc3occc32)C(=O)N1Cc1ccccc1Br (stereo unspecified) | -0.534% | 3.38% | 2.1% | -6.37% | -3.46%
17 | N#Cc1ccccc1-c1cc2c(ccn2Cc2ccncc2)c(N2CCOCC2)n1 | -68.7% | -25.8% | -16.4% | -23.4% | -62.1%
18 | CC(C)Oc1ccc(CN2C(=O)c3nc4ccccc4n3CC2(C)C(=O)NC2CCCCCC2)cc1 (stereo unspecified) | 4.08% | 1.17% | 10.2% | 5.87% | 2.66%
19 | O=C(CCCCCCC(=O)Nc1ccc(C2OC(CSc3nc(-c4ccccc4)c(-c4ccccc4)o3)CC(c3ccc(CO)cc3)O2)cc1)NO (stereo unspecified) | -28.4% | -2.36% | -32.9% | -33.8% | -17.4%
20 | Cc1ccc(NS(=O)(=O)c2cc3c(cc2N[C@@H](C)CO)NC(=O)CC3)cc1C |  | 4.82% |  | -17.8% | -21%

Row | Structure (SMILES) | activity change, negative = inhibition [1] | activity change, negative = inhibition [2] | activity change, negative = inhibition [3] | activity change, negative = inhibition [4] | activity change, negative = inhibition [5]
21 | CC(C)CCN1C(=O)c2ccccc2CC1(C)C(=O)NC1CCC(C)CC1 (stereo unspecified) | -5.07% | 0% | 11.7% | 6.74% | 0.875%
22 | CC(C)OCCCn1c(=O)c2ccccc2n2c(CCC(=O)NCc3ccc(Cl)cc3)nnc12 | -7.84% | -2.88% | -0.235% | -9.19% | -6.96%
23 | CCCn1c(=O)c2ccc(C(=O)NCC(C)C)cc2n2c(=O)n(CC(=O)Nc3ccc(C)cc3C)nc12 | 6.2% | 0% | 6.95% | -1.2% | 5.45%
24 | COCCOCC1(CNC(=O)C2CCOCC2)C[C@@H](O)[C@@H](O)C1 (stereo partly specified) | -1.33% | -1.63% | 0.38% | -5.99% | -14.6%
25 | O=C(O)Cc1cn([C@@H]2O[C@H](CO)[C@@H](O)[C@H](O)[C@H]2O[C@@H]2O[C@H](CO)[C@@H](O)[C@H](O)[C@H]2O)c2ccccc12 | 0% | 5.54% | 10.2% | -6.46% | 0.196%
26 | CC1=CC[C@@]2(C)CC[C@@](O)(C(C)C)[C@@H]2[C@@H](O)C1 | 0% | 3.88% | 6.46% | -13% | 3.78%
27 | COC(=O)CCC(=O)OC[C@]1(C)CCC[C@@]2(C)C3CC[C@]4(C)C=CC3(CCC12)C4 (stereo partly specified) | -1.67% | -16.3% | -8.62% | -18.5% | -8.75%
28 | CC(C)c1cc2n(n1)CC(C)(C(=O)NC1CCCCC1)N(Cc1ccccc1)C2=O (stereo unspecified) | 1.1% | 4.89% | 0.437% | 4.7% | 0.177%
29 | CCC(C)NC(=O)Cn1ccc2cc(S(=O)(=O)N3CCCCC3)ccc21 (stereo unspecified) | 7.2% | 0% | 7.37% | 5.12% | 3.68%
30 | CC(C)Cn1c(=O)c2cc(F)ccc2n2c(SCC(=O)Nc3ccccc3F)nnc12 | -9.8% | 5.54% | 6.86% | -14.7% | 1.54%
31 | CC(C)CNC1(Cc2cc(CN3CCOCC3)on2)COC1 | -0.091% | 0.844% | 3.14% | -2.26% | 1.22%
32 | COc1ccc(CN2C(=O)c3nc4ccccc4n3CC2(C)C(=O)NC2CCCC2)cc1 (stereo unspecified) | 2.04% | 4.71% | 4.3% | 3.02% | 1.82%
33 | COc1ccc(C)cc1NS(=O)(=O)c1cc2c(cc1C)n(C)c(=O)n2C | 1.64% | 5.95% | 2.84% | 8.61% | 3.02%
34 | CCOC(=O)c1cc2n(n1)CC(C)(C(=O)NCc1ccc(C)cc1)N(c1ccc(OC)cc1)C2=O (stereo unspecified) | 5.44% | 0% | 8.78% | 1.57% | 4.18%
35 | Cc1cccc(N2CCN(C(=O)CCc3nnc4n(CCc5ccccc5)c(=O)c5ccccc5n34)CC2C)c1 (stereo unspecified) | -7.83% | 1.24% | -5.82% | -12.2% | -7.4%
36 | CC(C)c1nc(CNC(=O)c2ccc(N(C)Cc3ccccn3)nc2)no1 | -0.347% | -3.45% | -7.83% | -5.3% | 0.063%
37 | CC(=O)Nc1ccc(C2(C(=O)NCc3ccc(F)cc3)CCC2)cc1 | -1.8% | 1.55% | 3.06% | 1.73% | -9.12%
38 | CCCn1c(=O)c2ccccc2n2c(=O)n(CC(=O)NCc3cccc(OC)c3)nc12 | -6.04% | 1.3% | -1.45% | -4.22% | -4.19%
39 | Cc1cc2c(C(C)C)c(O)c(O)c(C=O)c2c(O)c1-c1c(C)cc2c(C(C)C)c(O)c(O)c(C=O)c2c1O | -67% | 1.47% | -28.4% | -47.8% | 5.56%
40 | Fc1ccc2c(c1)C1C=CCC1C(c1ccc(Cl)cc1)N2 (stereo unspecified) | -8.36% | -2.59% | -10.4% | -8.64% | -10%

Row | Structure (SMILES) | activity change, negative = inhibition [1] | activity change, negative = inhibition [2] | activity change, negative = inhibition [3] | activity change, negative = inhibition [4] | activity change, negative = inhibition [5]
41 | COc1ccccc1Nc1nc2c(S(=O)(=O)c3ccccc3)nnn2c2ccccc12 | 2.52% | 0% | 7.69% | 4.93% | 2.25%
42 | COc1ccc(S(=O)(=O)NCCc2nc(-c3ccc(F)cc3)n[nH]2)cc1OC | 1.78% | 0% | 9.22% | -2.58% | 2.52%
43 | COc1ccc(N2CCN(CCNS(=O)(=O)c3ccc4c(c3)C(C)(C)C(=O)N4C)CC2)cc1 | 3.11% | 0% | 0.545% | -1.57% | 2.3%
44 | CC1(C(=O)NCc2ccc(Cl)cc2)Cn2c(ccc2-c2ccco2)C(=O)N1CCC1=CCCCC1 (stereo unspecified) | -16.9% | 0% | -1.01% | -19.7% | -7.01%
45 | FC(F)(F)c1ccc(CN2CC(N3CCc4ccccc43)C2)cc1 | -6.74% | 1.26% | 0.545% | -2.32% | -3.88%
46 | NS(=O)(=O)c1ccc(N=Nc2c(O)[nH]c3ccc(Br)cc23)cc1 |  | -8.77% |  | -26.2% | -3.89%
47 | COc1ccc(Cl)cc1NC(=O)Cn1nc2n(CCCOC(C)C)c(=O)c3ccccc3n2c1=O | 7.09% | 1.46% | 9.61% | -1.07% | 5.36%
48 | NC(=O)c1cccc(NC(=O)c2cccc(CN3CCNC(=O)C3)c2)c1 | -22.1% | -1.5% | -26.1% | -5.96% | -11.3%
49 | OC[C@@H]1O[C@H](CNCc2ccc(F)cc2)[C@H](N2CCOCC2)[C@@H]1O | -6.46% | -10.1% | -3.01% | -19% | -16.2%
50 | CCn1cnnc1CC1CCN(C(=O)C2CCCN(S(=O)(=O)c3ccc4c(c3)oc(=O)n4C)C2)CC1 (stereo unspecified) | -2.86% | 0% | 2.24% | -0.368% | 1.46%
51 | COc1cccc(-c2nccc3c(=O)cc(N(C)C)oc23)c1 | -14.6% | -10.9% | -23.2% | -24.9% | -2.98%
52 | Cc1ccc(Cn2c(=O)c3ccc(C(=O)NC4CCCC4)cc3n3c(=O)n(CC(=O)NC(C)C)nc23)cc1 | 6.45% | 0% | 6.6% | 7.34% | 7.14%
53 | CCOc1ccc(C(=O)Cn2nc3n(CCc4ccccc4)c(=O)c4ccccc4n3c2=O)cc1 | -2.47% | 3.19% | -0.42% | -1.96% | -3.48%
54 | O=C(C1CCCN1[S+](=O)([O-])c1cccs1)N1CCC(N2CCOCC2=O)CC1 (stereo unspecified) | -5.56% | -4.81% | -1.13% | -7.64% | 10.7%
55 | CC(C)CCNC(=O)C1(C)Cn2c(ccc2-c2ccco2)C(=O)N1CCc1ccccc1 (stereo unspecified) | -4.13% | 0% | 2.07% | -8.68% | -2.75%
56 | CCNC(=O)Nc1ccc(-c2nc3c(c(N4CCOCC4C)n2)CCN(C2COC2)C3)cc1 (stereo unspecified) | -2.79% | 3.67% | 2.75% | -13.3% | -2.57%
57 | C=CCCC(CN1CCCOCC1)Oc1cc(C#N)ccn1 (stereo unspecified) | -2.81% | 1.97% | 0.715% | -2.4% | 12.2%
58 | CC(C)(C(=O)O)C1CCOCC1 | -2.68% | -7.42% | -1.31% | -14.9% | -15.2%
59 | CSc1cccc(N2C(=O)c3cc(C(C)(C)C)nn3CC2(C)C(=O)NCCC(C)C)c1 (stereo unspecified) | -2.56% | 2.84% | 0% | -6.82% | -2.03%
60 | CCOC(=O)c1cc2n(n1)CC(C)(C(=O)NCCCOC)N(c1ccc(OC)c(OC)c1)C2=O (stereo unspecified) | 9.63% | 2.57% | 12.5% | 11% | 7.3%
